Publication PMC5836133
The list shows a part of the results. At the low end of the ranking, values are background and their order means little.

system: T1, GST-NbGlk1(82-244); experiment: protein-binding microarray; conditions: NbGlk1 is a Golden2-like transcription factor of Nicotiana benthamiana; high values mean tight binding; most listed sequences are background and not binding sites; double strand, one strand shown;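 note: rank-based score ranging −0.5 to +0.5 with E above 0.45 taken as significant binding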
T1 sequence: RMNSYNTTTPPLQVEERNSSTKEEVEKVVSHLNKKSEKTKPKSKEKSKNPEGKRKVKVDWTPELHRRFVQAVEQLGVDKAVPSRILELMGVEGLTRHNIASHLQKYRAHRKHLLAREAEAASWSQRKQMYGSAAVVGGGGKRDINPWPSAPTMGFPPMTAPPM

Sequence	binding signal [E-score]
ATCGTGCC	0.155
AGTCACGG	-0.123
ATAATCGG	0.097
CACTAAGC	-0.0943
ATTGAATA	0.103
ATTAGTAG	0.0824
AAGCATCC	-0.119
ACGAAATG	0.0869
AGGAGACA	-0.131
AAGATCAC	0.225
AATATTGG	0.202
AGATGCGC	-0.0729
AACAAAGG	-0.0804
AGACATAA	-0.193
ATACGGAC	0.123
CACTCACG	-0.0672
AGCGGGAA	-0.158
ACGTCGGG	-0.124
AGACCCAC	-0.267
AGTTGTAC	-0.0969
ATTGAGGC	-0.0636
ATGGATAC	0.25
ACGTGACG	-0.254
ACAGACTC	-0.339
ATTTCCGG	0.295

Sequence	binding signal [E-score]
AACGGGAC	-0.221
AGTTAGAA	-0.0448
CACCGTGC	-0.175
CAATCGAG	0.126
AGGTAGTC	-0.141
ATTCCCAG	0.291
ACGTCCGC	-0.181
AAATAACT	0.127
AGGTCATA	-0.111
ATGGGTAG	-0.0489
ATTATCCC	0.261
AAGGAGAT	0.261
AGCACCAC	-0.232
ATGATCTG	0.0086
AAAAATCA	0.336
AACGAACT	-0.101
ACCGTTCT	-0.0678
AGACAGGG	-0.139
AGAAATGC	-0.000669
ATCTCAGG	0.277
ATTCAAAG	0.0452
ATGGGATG	-0.148
AAATTGCA	0.121
ACGCCCTC	-0.204
AGCTACGC	-0.163

Sequence	binding signal [E-score]
AGCACCTA	-0.0678
AGCCCTTC	-0.257
AGCTCTAT	-0.181
AATCACAC	0.286
ACGTGAGC	-0.0927
AACTCCTT	-0.104
AAGCGTTA	0.0051
AACGTATC	0.322
AGCGAGGG	-0.248
ACTTCGTC	-0.183
ACACGGAA	0.0504
ACGTGATC	0.232
ATAAATCG	0.182
AGAGGTGG	-0.153
ATATGAGA	0.231
ATCCGGCC	0.258
AGTGGAAC	-0.109
AAAGACGC	-0.162
ATTGTCTC	0.105
CAAGAGGA	0.0323
ACGCGTGA	0.109
ACAGTGCC	-0.193
AGTACATG	-0.0841
AGAAACAA	-0.0208
AGATAGAG	-0.0715

Sequence	binding signal [E-score]
CACATTAG	-0.00304
ATCGTTAG	-0.0561
ATATCGGC	0.354
CAAGTACA	-0.00628
ATTTATAA	0.229
ACTATGCA	0.115
ACACCATA	0.0878
ACATTTCC	0.0737
AATATAGT	0.131
ATAGTCAA	0.0472
AATTCTAA	0.19
AGATTTGA	0.327
AAATCTAA	0.45
AGGACTTG	-0.1
AATACATA	0.161
AACACCAC	-0.105
AAATCCGG	0.441
AGCCATAC	-0.154
AAGTAACC	-0.079
ACCACGAA	-0.0301
ATTACTGG	0.107
ACTGATCG	0.145
AGTAGGCC	-0.257
ACGCGCGT	0.045
ACAGGCAA	0.105

Sequence	binding signal [E-score]
ACGCGGAT	0.235
ACCGGTAG	-0.0228
ACTAACAA	-0.0462
CACATTCG	0.0521
AAGCGGGC	-0.228
ACGTATAT	0.133
ACCATTCA	0.0128
ACAGCTGT	-0.112
AAATTACA	0.281
CAGAGAAG	0.0407
CACTTAAC	-0.0168
AGTCCTAT	-0.175
ACGCTCAA	-0.0262
ACCCGAGT	-0.173
ACGGCAAG	-0.0798
ATCACCTG	-0.0338
ATCACAGC	0.171
ATTCGAGG	0.0807
AGTTACCA	-0.0411
ATATATAC	0.227
AATGAGGC	-0.172
ACTATGGG	-0.0927
ATACCACA	0.0878
ATTTGTCC	0.0894
ACCGCCAT	-0.0581

Sequence	binding signal [E-score]
CACGTCAA	-0.0566
ATGTGTGC	-0.0361
CAACCAAG	-0.101
AAAAATAA	0.229
ATGATCCG	0.101
CAAGCGCC	-0.253
ACAAGTCC	-0.231
AATGAGAT	0.312
AACGTTCA	-0.169
AATCTCCG	0.437
ACGCCATG	-0.0715
ACTTACGA	0.151
AAGGACTC	-0.256
ATTTGTAA	0.266
ACTGAATC	0.157
ATCAAGCG	0.0915
ACCGCCCA	-0.291
ACATCTTC	0.0604
AATAACGC	-0.0245
ACGTTGAA	-0.0192
AGATTCGC	0.482
AATGCTCG	-0.17
ATGAAGAC	-0.0547
CACTACTA	0.0218
AACATCAT	0.000137

Sequence	binding signal [E-score]
ATCAACCG	-0.117
AGCCAGAC	-0.121
ACTCTGGG	0.0676
AAATGTAA	0.141
CACGACAG	-0.229
ACTTTCCA	-0.0206
AACTCTGG	-0.112
AAGTTTAA	-0.0311
CAATCACG	0.159
AAATCTGC	0.456
AGTGAAGA	-0.014
ACGATGTA	-0.11
ACTAAGAA	0.107
AGATCCGA	0.307
AGTCAAAC	-0.0735
ATGTCGAG	-0.0524
ATTGTAAG	0.0633
AGCAGAGA	0.0378
CAACCTTG	-0.245
AATTTCGA	0.259
ATAGTGAT	0.0465
ACCGACTG	-0.171
AGCAAGCG	-0.122
AGGTCAAT	-0.00434
AATCTTAT	0.377

Sequence	binding signal [E-score]
CACTTGGA	0.156
ACTCCTCG	-0.0848
AATACTAA	0.164
AGTGGGTA	-0.0607
ACAGCGCA	-0.0303
ATCAGTCC	-0.128
ATCCTTTA	0.274
ACCCCTAC	-0.258
ACGTTTGG	-0.00266
ATCTAGAT	0.398
ATTCCCGC	0.178
AAGGCTTA	-0.203
CACTGATC	0.108
ATCTATAG	0.288
AGGCGAGA	-0.0186
AGTGCGAT	0.313
AATCATAT	0.28
ATTTGCCA	0.358
CAATACGA	0.164
CAATCCCG	0.284
ACTGTGTA	0.00924
ACCTCGTC	-0.169
ACCTGCTC	-0.225
AAAAGGCC	-0.235
AGTCCTTG	-0.227

Sequence	binding signal [E-score]
ACCGGTCG	-0.149
ACCTATTC	-0.0697
ACCGGAGT	-0.12
AAGGAGCC	-0.189
AACCGAAG	-0.00877
AAATATTG	0.229
ACACCGAG	-0.0776
AGCCCCCC	-0.288
ACCCGTTG	-0.317
CAATCCGG	0.328
AATAGCGC	-0.0474
AAAGACAC	-0.00667
ATGCGAAC	-0.0312
AAGCATAT	0.213
AGGAAAAA	0.0992
ACAATTGG	-0.00064
CACCACCG	-0.0244
ACCCACTA	-0.092
ATAGCCAG	-0.134
ATTTGCTC	0.253
ATGGGGAC	-0.138
ACGTCGGC	-0.186
ACAGGAGG	-0.111
ACGACTAC	-0.105
AATAGAAA	0.132

Sequence	binding signal [E-score]
AGTCGAGC	-0.318
AACACCGA	0.0733
AACACGAC	-0.189
CAGAAGTC	-0.0489
AGCTGACG	-0.171
ATGGAAAG	-0.0678
CACTCAGC	-0.154
AGTATTCG	0.0703
AACGCAAA	0.115
ATCATGGC	0.0394
CAAGAGAC	-0.124
AAAGCTAG	0.0285
CACATAGA	0.107
AAGGCTGA	-0.197
AGTGGTCC	-0.257
ACTAAAGT	-0.0581
AGTGTCTC	-0.00738
ACCGATCG	0.0385
AATTTGGA	0.157
ACGCGTTG	-0.124
ACTGAGCT	-0.125
ACGCATTC	-0.102
ATTGGGGA	0.0378
ACGAACGC	-0.121
AGTTTCAT	0.00185

Sequence	binding signal [E-score]
AAAGGCAA	-0.0276
ATGCCATC	-0.0958
AGATGTTC	0.055
ACCAGTAC	-0.189
ATCTGGTA	0.238
CAAATGCA	-0.0146
AGGACGAT	0.176
ATGCATCA	-0.00345
AGAATACT	-0.0088
ACGGAAAC	-0.201
AGTGCAGA	0.13
AGTACGGC	-0.215
AAGGCGCA	-0.118
ACCTGTAA	0.0445
ATTCGAAC	0.109
ATCATTCC	-0.0969
ACAGGAAC	-0.105
AACATAGA	0.0936
AATCCGCT	0.388
CAGCCCAA	-0.113
AACAAAGA	0.0614
AGTCTACC	-0.233
ACACTTCT	-0.00471
AAAAGTTT	-0.000852
AGGCGTTC	-0.191

Sequence	binding signal [E-score]
AGAAGCCC	-0.355
AATAATAG	0.181
AGCGGATA	0.27
ACGCGGTG	-0.213
CAAATAGC	-0.0948
ATAAATAT	0.292
AAGGCTCC	-0.343
AGGATTAC	0.449
ATAAGAAC	0.0653
AAGCCCAA	-0.172
AGACATCA	0.0261
ACTGTCCA	-0.129
AGAACACT	-0.0433
AATTTACA	0.134
ACGCTGGA	-0.112
CAAGCCCG	-0.344
ATTGTATC	0.0886
AGTTTATC	-0.137
AAAGGATT	0.372
ATAGAACC	-0.0986
AACTGCGT	-0.0817
AGTGTTTG	0.0123
AGAGACCT	-0.205
ACTTCGTA	0.0587
AGGGGTAC	-0.27

Sequence	binding signal [E-score]
AATAATAA	0.28
ATACGGAA	0.173
ATAGCGAA	0.167
AGCGGGTA	-0.113
AGTTTAAC	-0.0229
CACTGCCC	-0.308
ACTAAATC	0.213
AGGTCGAG	-0.179
ATGATTCA	0.0749
AACAAAAC	0.0449
AAAGATAA	0.122
ATTTGACG	0.169
ACTCGTAA	0.247
AGGCTTAC	-0.337
ATCTTCCC	0.24
AAAATACC	0.137
ACTCGTAT	0.00375
ATGTAGAA	0.0373
AACTGGTG	-0.172
AACTCGTC	-0.117
AGGACTGA	-0.0878
AATCTGGC	0.416
AGGAGCCA	-0.155
CAACCTTA	-0.21
ACAGCTAC	-0.179

Sequence	binding signal [E-score]
ATTGCCTA	0.133
CAAAGGAA	-0.0301
AGATTTTG	0.465
ATTTGCGC	0.248
AGAAACGG	-0.055
CAATGGCC	-0.192
ACGACCTC	-0.285
ACTCATTC	-0.0306
AACACCAT	-0.0456
AGTTTTAG	-0.0519
AATGGTTA	-0.0471
ATTGCTAC	0.23
AGGGAGTG	-0.203
CACGCAGA	0.0599
AACAAGCC	-0.0982
ACGCGATA	0.252
AGCAACAT	-0.132
ATGATTGG	-0.0558
AGTGTACG	-0.2
